According to the supplement of paper PMC8728848:
Some of the results follow.

Legend:
Experiment in all cases: glycan array binding signal (z-score within array); higher = stronger binding
Conditions in all cases: glycan notation: IUPAC condensed, linker removed
[1] = biological target: Fuc(a1-2)Gal(b1-4)[Fuc(a1-3)]GlcNAc
Summary of the method: (§1)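 The Consortium for Functional Glycomics database supplied 3228 glycan arrays, of which those lacking an available protein sequence were dropped. The binding signal, a within-array Z-score, was averaged across arrays of the same protein sequence and across linkers. Negative scores can be read as non-binding.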

[2] = biological target: Fuc(a1-2)Gal(b1-4)[Fuc(a1-3)]GlcNAc(b1-2)Man(a1-3)[Fuc(a1-2)Gal(b1-4)[Fuc(a1-3)]GlcNAc(b1-2)Man(a1-6)]Man(b1-4)GlcNAc(b1-4)[Fuc(a1-6)]GlcNAc
Summary of the method: as §1

[3] = biological target: Fuc(a1-2)Gal(b1-4)[Fuc(a1-3)]GlcNAc(b1-2)[Fuc(a1-2)Gal(b1-4)[Fuc(a1-3)]GlcNAc(b1-4)]Man(a1-3)[Fuc(a1-2)Gal(b1-4)[Fuc(a1-3)]GlcNAc(b1-2)Man(a1-6)]Man(b1-4)GlcNAc(b1-4)GlcNAc
Summary of the method: as §1

[4] = biological target: Fuc(a1-2)Gal(b1-4)[Fuc(a1-3)]GlcNAc(b1-3)Gal(b1-4)[Fuc(a1-3)]GlcNAc
Summary of the method: as §1

[5] = biological target: Fuc(a1-2)Gal(b1-4)[Fuc(a1-3)]GlcNAc(b1-3)Gal(b1-4)[Fuc(a1-3)]GlcNAc(b1-3)Gal(b1-4)[Fuc(a1-3)]GlcNAc
Summary of the method: as §1

[6] = biological target: Fuc(a1-2)Gal(b1-4)[Fuc(a1-3)]GlcNAc(b1-3)GalNAc
Summary of the method: as §1

[7] = biological target: Fuc(a1-2)Gal(b1-4)[Fuc(a1-3)]GlcNAc(b1-3)[Neu5Ac(a2-6)Gal(b1-4)GlcNAc(b1-6)]Gal(b1-4)Glc
Summary of the method: as §1

[8] = biological target: Fuc(a1-2)Gal3S(b1-4)GlcNAc
Summary of the method: as §1

[9] = biological target: Fuc(a1-2)Gal6S(b1-3)GlcNAc
Summary of the method: as §1

[10] = biological target: Fuc(a1-2)Gal6S(b1-3)GlcNAc6S
Summary of the method: as §1

Fuc(a1-2)Gal6S(b1-4)Glc = biological target: Fuc(a1-2)Gal6S(b1-4)Glc
Summary of the method: as §1

[11] = biological target: Fuc(a1-2)Gal6S(b1-4)Glc6S
Summary of the method: as §1

Fuc(a1-2)GlcNAc = biological target: Fuc(a1-2)GlcNAc
Summary of the method: as §1

Fuc(a1-2)[Gal(a1-3)]Gal = biological target: Fuc(a1-2)[Gal(a1-3)]Gal
Summary of the method: as §1

[12] = biological target: Fuc(a1-2)[Gal(a1-3)]Gal(b1-3)GalNAc
Summary of the method: as §1

[13] = biological target: Fuc(a1-2)[Gal(a1-3)]Gal(b1-3)GalNAc(b1-3)Gal(a1-4)Gal(b1-4)Glc
Summary of the method: as §1

[14] = biological target: Fuc(a1-2)[Gal(a1-3)]Gal(b1-3)GlcNAc
Summary of the method: as §1

[15] = biological target: Fuc(a1-2)[Gal(a1-3)]Gal(b1-3)GlcNAc(b1-2)Man(a1-3)[Fuc(a1-2)[Gal(a1-3)]Gal(b1-3)GlcNAc(b1-2)Man(a1-6)]Man(b1-4)GlcNAc(b1-4)GlcNAc
Summary of the method: as §1

[16] = biological target: Fuc(a1-2)[Gal(a1-3)]Gal(b1-3)GlcNAc(b1-2)Man(a1-3)[Fuc(a1-2)[Gal(a1-3)]Gal(b1-3)GlcNAc(b1-2)Man(a1-6)]Man(b1-4)GlcNAc(b1-4)[Fuc(a1-6)]GlcNAc
Summary of the method: as §1

[17] = biological target: Fuc(a1-2)[Gal(a1-3)]Gal(b1-3)GlcNAc(b1-3)GalNAc
Summary of the method: as §1

[18] = biological target: Fuc(a1-2)[Gal(a1-3)]Gal(b1-3)GlcNAc(b1-6)GalNAc
Summary of the method: as §1

[19] = biological target: Fuc(a1-2)[Gal(a1-3)]Gal(b1-4)Glc
Summary of the method: as §1

[20] = biological target: Fuc(a1-2)[Gal(a1-3)]Gal(b1-4)GlcNAc
Summary of the method: as §1

[21] = biological target: Fuc(a1-2)[Gal(a1-3)]Gal(b1-4)GlcNAc(b1-2)Man
Summary of the method: as §1

[22] = biological target: Fuc(a1-2)[Gal(a1-3)]Gal(b1-4)GlcNAc(b1-2)Man(a1-3)[Fuc(a1-2)[Gal(a1-3)]Gal(b1-4)GlcNAc(b1-2)Man(a1-6)]Man(b1-4)GlcNAc(b1-4)GlcNAc
Summary of the method: as §1

[23] = biological target: Fuc(a1-2)[Gal(a1-3)]Gal(b1-4)GlcNAc(b1-2)Man(a1-3)[Fuc(a1-2)[Gal(a1-3)]Gal(b1-4)GlcNAc(b1-2)Man(a1-6)]Man(b1-4)GlcNAc(b1-4)[Fuc(a1-6)]GlcNAc
Summary of the method: as §1

[24] = biological target: Fuc(a1-2)[Gal(a1-3)]Gal(b1-4)GlcNAc(b1-3)GalNAc
Summary of the method: as §1

[25] = biological target: Fuc(a1-2)[Gal(a1-3)]Gal(b1-4)GlcNAc(b1-3)[Fuc(a1-2)[Gal(a1-3)]Gal(b1-4)GlcNAc(b1-6)]GalNAc
Summary of the method: as §1

[26] = biological target: Fuc(a1-2)[Gal(a1-3)]Gal(b1-4)GlcNAc(b1-6)GalNAc
Summary of the method: as §1

[27] = biological target: Fuc(a1-2)[Gal(a1-3)]Gal(b1-4)[Fuc(a1-3)]Glc
Summary of the method: as §1

[28] = biological target: Fuc(a1-2)[Gal(a1-3)]Gal(b1-4)[Fuc(a1-3)]GlcNAc
Summary of the method: as §1

[29] = biological target: Fuc(a1-2)[Gal(a1-3)]Gal(b1-4)[Fuc(a1-3)]GlcNAc(b1-3)GalNAc
Summary of the method: as §1

[30] = biological target: Fuc(a1-2)[Gal(a1-4)]Gal(b1-4)GlcNAc
Summary of the method: as §1

[31] = biological target: Fuc(a1-2)[GalNAc(a1-3)]Gal
Summary of the method: as §1

[32] = biological target: Fuc(a1-2)[GalNAc(a1-3)]Gal(b1-3)GalNAc(a1-3)[Fuc(a1-2)]Gal(b1-4)GlcNAc
Summary of the method: as §1

[33] = biological target: Fuc(a1-2)[GalNAc(a1-3)]Gal(b1-3)GalNAc(b1-3)Gal(a1-4)Gal(b1-4)Glc
Summary of the method: as §1

[34] = biological target: Fuc(a1-2)[GalNAc(a1-3)]Gal(b1-3)GlcNAc
Summary of the method: as §1

[35] = biological target: Fuc(a1-2)[GalNAc(a1-3)]Gal(b1-3)GlcNAc(b1-2)Man(a1-3)[Fuc(a1-2)[GalNAc(a1-3)]Gal(b1-3)GlcNAc(b1-2)Man(a1-6)]Man(b1-4)GlcNAc(b1-4)GlcNAc
Summary of the method: as §1

B1: Jacalin (Artocarpus integrifolia) (protein)
chain: MAYSSLLSLSVLALLFSISSADTRKWFLANGINQNPIGIIEAAVGVSEDLLNLNGMEAKNDEQSGISQTVIVGPWGAKVSTSSNGKAFDDGAFTGIREINLSYNKETAIGDFQVVYDLNGSPYVGQNHKSFITGFTPVKISLDFPSEYIMEVSGYTGNVSGYVVVRSLTFKTNKKTYGPYGVTSGTPFNLPIENGLIVGFKGSIGYWLDYFSMYLSL
glycan array binding signal (z-score) [1]: -0.259
glycan array binding signal (z-score) [2]: -0.224
glycan array binding signal (z-score) [3]: -0.131
glycan array binding signal (z-score) [4]: -0.265
glycan array binding signal (z-score) [5]: -0.243
glycan array binding signal (z-score) [6]: -0.131
glycan array binding signal (z-score) [7]: -0.259
glycan array binding signal (z-score) [8]: -0.25
glycan array binding signal (z-score) [9]: -0.278
glycan array binding signal (z-score) [10]: -0.152
glycan array binding signal (z-score) (Fuc(a1-2)Gal6S(b1-4)Glc): -0.268
glycan array binding signal (z-score) [11]: -0.226
glycan array binding signal (z-score) (Fuc(a1-2)GlcNAc): -0.337
glycan array binding signal (z-score) (Fuc(a1-2)[Gal(a1-3)]Gal): -0.258
glycan array binding signal (z-score) [12]: -0.142
glycan array binding signal (z-score) [13]: -0.088
glycan array binding signal (z-score) [14]: -0.189
glycan array binding signal (z-score) [15]: -0.267
glycan array binding signal (z-score) [16]: -0.249
glycan array binding signal (z-score) [17]: 0.344
glycan array binding signal (z-score) [18]: -0.265
glycan array binding signal (z-score) [19]: -0.273
glycan array binding signal (z-score) [20]: -0.273
glycan array binding signal (z-score) [21]: -0.264
glycan array binding signal (z-score) [22]: -0.225
glycan array binding signal (z-score) [23]: -0.211
glycan array binding signal (z-score) [24]: 0.624
glycan array binding signal (z-score) [25]: -0.332
glycan array binding signal (z-score) [26]: -0.217
glycan array binding signal (z-score) [27]: -0.262
glycan array binding signal (z-score) [28]: -0.235
glycan array binding signal (z-score) [29]: 0.282
glycan array binding signal (z-score) [30]: -0.293
glycan array binding signal (z-score) [31]: -0.277
glycan array binding signal (z-score) [32]: -0.267
glycan array binding signal (z-score) [33]: -0.248
glycan array binding signal (z-score) [34]: -0.279
glycan array binding signal (z-score) [35]: -0.249
